“And” between values parts separate entries of the source, which are not always exact repeats. Equal values may be shown once. The whole screen tested about 110,000 compounds, of which about 230 (0.21%) showed an effect of 50% or more. This is one part of the list.
Each compound was assayed against DPAP1 (Plasmodium falciparum, UniProt Q8IIJ9) (assay: primary screen, percent inhibition; read by cleavage of a fluorogenic dipeptide substrate; higher = more effect of the substance).
Set-up: species or system P. falciparum D10 trophozoite lysates; single well
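Also: 30 min substrate incubation versus DMSO and 10 µM JCP410 controls.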

Chain of DPAP1 (Q8IIJ9 whole entry, looked up): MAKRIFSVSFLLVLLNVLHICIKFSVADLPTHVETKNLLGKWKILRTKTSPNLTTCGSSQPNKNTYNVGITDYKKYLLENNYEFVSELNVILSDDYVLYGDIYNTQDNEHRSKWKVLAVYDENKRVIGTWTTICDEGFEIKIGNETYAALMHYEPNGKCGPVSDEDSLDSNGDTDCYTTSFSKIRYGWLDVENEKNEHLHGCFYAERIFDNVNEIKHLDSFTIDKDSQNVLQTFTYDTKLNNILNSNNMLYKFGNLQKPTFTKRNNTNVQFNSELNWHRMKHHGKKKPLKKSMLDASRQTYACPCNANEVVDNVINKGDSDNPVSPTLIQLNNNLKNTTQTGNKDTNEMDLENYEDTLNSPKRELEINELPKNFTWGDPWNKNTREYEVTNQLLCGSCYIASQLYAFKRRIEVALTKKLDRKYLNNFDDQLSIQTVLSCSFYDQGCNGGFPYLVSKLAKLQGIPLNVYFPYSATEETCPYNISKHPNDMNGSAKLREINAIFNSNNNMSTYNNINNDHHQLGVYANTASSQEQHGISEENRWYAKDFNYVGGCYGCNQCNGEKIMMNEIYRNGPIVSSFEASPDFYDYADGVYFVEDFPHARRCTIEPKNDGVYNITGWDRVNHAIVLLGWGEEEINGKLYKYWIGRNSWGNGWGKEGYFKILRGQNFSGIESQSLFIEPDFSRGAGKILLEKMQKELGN

| Compound | % Inhibition @ 10 uM |
| --- | --- |
| COc1ccc(OC)c(C2C(C(=O)c3ccc(C)cc3)=C(O)C(=O)N2CCCC(=O)O)c1 (centres unmarked) | -13.9% |
| CCCC12CN3CC(C)(CN(C1)C3c1c(C)n(C)c3ccccc13)C2=O (centres unmarked) | 1.67% |
| COc1ccc(S(=O)(=O)N2CCC(C#N)(c3ccccc3)CC2)cc1N | 7.02% |
| N#CCNC(=O)[C@H](CC1CCCCC1)NC(=O)c1cccc(N)c1 | -1.83% |
| COc1ccc(-c2cc(C(=O)N3CCCCC3)c3ccccc3n2)c(OC)c1 | 5.31% |
| COc1ccccc1C(=O)NCc1nc2ccccc2n1Cc1ccccc1F | -8.18% |
| Cc1[nH]c2ccc(Br)cc2c1CCNC(=O)c1cccs1 | -8.94% |
| CC(NC(=O)c1ccccc1OCC(=O)NC12CC3CC(CC(C3)C1)C2)c1ccccc1 (centres unmarked) | -1.24% |
| COc1ccccc1C(NC(C)=O)c1c(O)ccc2ccccc12 (centres unmarked) | -5.05% |
| CCn1cc(/C=C(\NC(=O)c2ccc(OC)cc2)C(=O)N2CCCC2)c2ccccc21 | -1.74% |
| CCCOc1ccccc1NC(=O)CC1Sc2ccccc2NC1=O (centres unmarked) | 1.24% |
| COc1cc2oc(=O)c(CC(=O)NCc3ccc4c(c3)OCO4)c(C)c2cc1Cl | 2.54% |
| CN(C)CCCn1cnc2ccccc21 | -0.582% |
| Cn1nc(C(=O)NC2CCCc3ccccc32)c2c1-c1ccccc1SC2 (centres unmarked) | 9.28% |
| CCCCNC(=O)CCc1nnc2ccc(N3CCCC3)nn12 | -3.73% |
| CCCCSCCCNC(=O)c1cc(O)nc2ccc(Br)cc12 | -3.58% |
| COC(=O)c1cc(S(=O)(=O)N2CCN(c3ccc(N4CCOCC4)nn3)CC2)cn1C | -5.47% |
| CCOc1ccc(-c2nc(SCC(=O)Nc3nccs3)c(-c3ccccc3)[nH]2)cc1OC | 1.85% |
| C#CCOc1c(CC=C)cc(/C=C2/NC(=O)NC2=O)cc1OCC | -5.63% |
| Cc1ccc(S(=O)(=O)N2CCC(C(=O)N3CCN(Cc4ccc5c(c4)OCO5)CC3)CC2)cc1 | -1.26% |
| CC1CC(C)(C)NC(=S)N1CCCC(=O)N1CCN(c2ccccn2)CC1 (centres unmarked) | -3.31% |
| C=CCN1C(=O)S/C(=C/c2cc(Cl)cc(Br)c2O)C1=O | 3% |
| CC(NCc1ccccc1)C1COc2ccccc2O1 (centres unmarked) | -5.15% |
| COC(=O)c1[nH]c2ccc(F)cc2c1N | 1.32% |
| Cc1cccc(Cn2c(C)c(C)c3cc(C(=O)NCC4CCCO4)ccc32)c1 (centres unmarked) | -5.09% |
| O=C(O)c1ccc(CSc2nc3n(n2)C(c2cccs2)C2=C(O)CCCC2=N3)cc1 (centres unmarked) | -3.45% |

| Compound | % Inhibition @ 10 uM |
| --- | --- |
| Clc1ccc(-c2[nH]c(-c3cccnc3)nc2-c2ccccc2)cc1 | -0.0108% |
| CCOCCCNC(=O)c1nnc(Cc2ccc3c(c2)OCO3)o1 | -2.78% |
| CCCCN(CC)CCNC(=O)c1ccc2c(Cl)c3c(nc2c1)CCC3 | -0.495% |
| CC(C)C[C@H](NC(=O)NC(C)(C)C)C(=O)NCC#N | 3.19% |
| Cc1cc(Oc2nc3c(C)cccn3c(=O)c2/C=C(\C#N)S(=O)(=O)c2ccccc2)ccc1Cl | 2% |
| O=C(O)c1cccc(NC(=O)c2ccc(N3C(=O)C4CCCCC4C3=O)cc2)c1 (centres unmarked) | -0.884% |
| CCC1(C)Cc2c(sc3nc(SC)n4c(S)nnc4c23)CO1 (centres unmarked) | -4.93% |
| CC(Nc1oc(/C=C/c2ccc(F)cc2)nc1C#N)c1ccccc1 (centres unmarked) | -4.39% |
| Cc1ccc(COc2ccc3oc(C)c(C(=O)O)c3c2)cc1 | -2.15% |
| CC1CCC(C(C)C)C(OCC(O)CN2CCN(c3ccc(F)cc3)CC2)C1 (centres unmarked) | 4.22% |
| O=C(O)C1CCCCC1C(=O)Nc1ccc(F)cc1F (centres unmarked) | 2.03% |
| CC(C)c1ccc(CN(CCO)CCO)cc1 | -2.34% |
| Cc1cc(C)c2c(n1)nn1c(C)c(CCC(=O)NCC3CCCO3)c(C)nc21 (centres unmarked) | -2.45% |
| CC1CCN(C(=O)CSc2nc(-c3ccc(C(C)(C)C)cc3)nc3cc(=O)[nH]n23)CC1 | 1.8% |
| COc1ccc2[nH]c3c(c2c1)CC(C)NC3=O (centres unmarked) | -0.436% |
| Cc1ccc(NC(=O)CN2C(=O)N/C(=C/c3ccc(C(C)C)cc3)C2=O)cc1 | 2.24% |
| N#C/C(=C\c1c(Oc2ccccc2)nc2ccccn2c1=O)C(=O)N1CCCCC1 | 1.19% |
| COc1ccc(/C=C/C(=O)c2ccc(OC)cc2OC)c(OC)c1 | -4.08% |
| O=C(Nc1ccc(F)cc1F)c1ccc(F)cc1 | -3.03% |
| CCCN1CCN(C(=O)Cn2nc(C)n3c(cc4sccc43)c2=O)CC1 | 4.95% |
| Cc1ccc2cc(CCNC(=O)c3cc4ccccc4o3)c(O)nc2c1 | 1.39% |
| CCc1c(C)sc(NC(=O)c2cc(-c3ccccc3OC)on2)c1C#N | -1.28% |
| CC1(C(=O)NCc2ccco2)CC2c3ccccc3C1c1ccccc12 (centres unmarked) | -2.16% |
| Cc1c2cnn(CC(=O)NCCc3c[nH]c4ccccc34)c(=O)c2c(C)n1Cc1ccccc1 | 1.22% |
| CC1CCc2nn(CC(=O)NC(C)c3ccccc3)cc2C1 (centres unmarked) | 0.137% |
| O=C1CCCN1CCNC(=S)Nc1ccccc1 | -5.33% |

| Compound | % Inhibition @ 10 uM |
| --- | --- |
| CCOC(=O)c1cnc2cc(F)c(F)cc2c1N1CCCC1 | 2.77% |
| Cc1c(Cl)c(C(=O)Nc2ccc(N(C)C)cc2)nn1C | -0.661% |
| O=C1c2ccccc2C(=O)N1CC(=O)N1CCCc2ccccc21 | -3.26% |
| Cc1ccc(-c2cn3nc(N4CCCC(C(=O)NCc5ccccc5C)C4)sc3n2)cc1 (centres unmarked) | 0.95% |
| Nc1cc(O)nc(SCC(=O)N2CCCc3ccccc32)n1 | -4.01% |
| Cc1cc2c(c(O)n1)C(=O)O/C2=C\c1cccs1 | -0.415% |
| COc1ccccc1CNCc1c(C(=O)O)n(Cc2ccc(F)cc2Cl)c2cc(C)ccc12 | -8.04% |
| O=C(c1ccc(F)cc1)N1CCC(C(=O)N(Cc2ccccc2)Cc2ccccc2)CC1 | 3.47% |
| Cc1ccc(-n2nnc(-c3nc(-c4cccs4)no3)c2N)cc1 | -1.35% |
| Cn1c(=O)c2ncn(CC(=O)Nc3ccc4c5c(cccc35)CC4)c2n(C)c1=O | -3.43% |
| Cc1ccc(C)c(OCC(O)CN2CCN(c3ccccc3F)CC2)c1 (centres unmarked) | 6.73% |
| CCOC(=O)c1c(C)[nH]c(C)c1S(=O)(=O)N1CCN(Cc2ccccc2)CC1 | 4.25% |
| C=CCOc1ccc(C(=O)N(Cc2ccccc2F)C2CCS(=O)(=O)C2)cc1 (centres unmarked) | -3.12% |
| COc1cccc(OC)c1C(=O)NCCc1ccccc1 | 14.9% |
| CCOC(=O)N1CCc2[nH]c3ccc(OC)cc3c2C1 | 6.94% |
| O=c1oc2ccccc2c(Cl)c1CN1CCCC1 | 6.83% |
| CCN1CCN(Cc2cccc(OC)c2)CC1 | 3.25% |
| CCOc1ccccc1C(=O)Nc1nc(-c2ccccc2)cs1 | 4.3% |
| O=C(Cn1nc(C(F)(F)F)cc1C1CC1)NCc1ccco1 | 5.92% and -3.19% |
| Cc1ccc(NC(=O)CCC(=O)c2c[nH]c3ccccc23)cc1 | -2.51% |
| Nc1nonc1-c1nc2ccccc2n1CC(=O)N1CCCCC1 | -0.169% |
| COCCCN1C(=O)S/C(=C/c2c[nH]c3ccccc23)C1=O | 3.83% |
| O=C(c1ccccc1)N1N=C(c2ccc(Br)cc2)CC1c1ccco1 (centres unmarked) | 4.58% |
| Cc1cc(C)cc(NC(=O)c2ccccc2N)c1 | -4.5% |
| C=CCc1c(O)nc(SCc2ccccc2Cl)nc1O | -3.28% |
| CCn1c(SCC(=O)NCc2ccco2)nnc1-c1cccnc1 | -1.46% |

| Compound | % Inhibition @ 10 uM |
| --- | --- |
| COc1ccc(N2C(=O)CSC2c2ccccc2)cc1 (centres unmarked) | 2.74% |
| CCOC(=O)/C=C(\C)N1N=C2c3cc(OC)ccc3CCC2C1c1ccccc1 (centres unmarked) | 2% |
| CC1(C)CC(=O)C2=C(C1)OC(N)=C(C#N)C2c1ccc(Cl)c(Cl)c1 (centres unmarked) | 1.54% |
| Cc1cc(C)n(S(=O)(=O)c2cc(C(=O)O)c(Cl)cc2Cl)n1 | 3.72% |
| Brc1ccc(NCc2cccnc2)cc1 | 2.94% |
| CN(Cc1ccccc1)C(=O)COc1ccc2ccccc2c1 | 3.48% |
| COc1ccc(S(=O)(=O)c2c(C)cc(C)cc2C)cc1 | -0.591% |
| CC1CCc2c(C(=O)NCC(C)c3ccccc3)csc2C1 (centres unmarked) | 0.277% |
| CC1CCN(C(=O)c2cn(C3CCCCC3)c(=O)c3c2c2ccccc2n3C)CC1 | 3.48% |
| CC(=O)c1cccc(NC(=O)NC2CCCCC2)c1 | 2.99% |
| COc1ccc(C(=O)N2CCN(c3ccccc3OC)CC2)c(OC)c1 | 8.06% |
| O=C(NC(Cc1ccc(O)cc1)C(=O)O)c1ccco1 (centres unmarked) | 1.7% |
| CCN(CC)CCCOC(=O)c1ccc(O)cc1O | 1.7% |
| Cc1ccnc(NS(=O)(=O)c2ccc(NC(=O)c3sc4ccccc4c3Cl)cc2)n1 | 1.02% |
| COc1cccc(CNCc2ccc(OC)cc2OC)c1 | 4.3% |
| O=C(Nc1nc2ccccc2s1)c1cc2ccccc2c(=O)o1 | 3.94% |
| N#CCNC(=O)[C@H](CSCc1ccccc1)NC(=O)c1cnc2ccccc2c1 | -5.21% |
| COc1ccccc1NC(=O)C(Cc1ccc([N+](=O)[O-])cc1)N1C(=O)c2ccccc2C1=O (centres unmarked) | 2.55% |
| CCOc1ccccc1C1C2=C(O)CCCC2=Nc2nc(SCc3ccc(C(=O)O)cc3)nn21 (centres unmarked) | 3.2% |
| COc1cccc(C2CC(=O)NC(SCc3ccccc3)=C2C#N)c1 (centres unmarked) | -2.35% |
| NS(=O)(=O)c1ccc(CCNC(=O)c2ccc3c(c2)sc2nc(-c4ccc(F)cc4)cn23)cc1 | -0.901% |
| O=C(NCCN1CCOCC1)C12CC3CC(CC(C3)C1)C2 | -0.436% |
| CCOC(=O)c1c(C)[nH]c(C)c1S(=O)(=O)NCCC(C)N1CCOCC1 (centres unmarked) | 0.00978% |

Reference: article PMC6919601, “Identification of Plasmodium dipeptidyl aminopeptidase allosteric inhibitors by high throughput screening” (PLoS ONE, 2019)
